# Laboratory results published in publication PMC4705382.
# By UniProt entry, the sequences of proteins in these tests, tags left out.
# UniProt Q62760: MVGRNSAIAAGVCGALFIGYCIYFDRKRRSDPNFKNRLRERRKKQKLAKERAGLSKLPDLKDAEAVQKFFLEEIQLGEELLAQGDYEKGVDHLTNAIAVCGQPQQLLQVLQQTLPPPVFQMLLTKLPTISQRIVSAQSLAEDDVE
# These are yes or no findings as the source states them, for the method shown. Binding seen in cells or lysates may run through a third protein. Some entries that bind do so weakly or less than the wild type. For part of these data: Where a sequence is shown, tags or fusion partners need not be part of it.
# T1: Mitofusin1 (rat brain) (rat (endogenous in brain)) (UniProt Q8R4Z9)
# T1 sequence: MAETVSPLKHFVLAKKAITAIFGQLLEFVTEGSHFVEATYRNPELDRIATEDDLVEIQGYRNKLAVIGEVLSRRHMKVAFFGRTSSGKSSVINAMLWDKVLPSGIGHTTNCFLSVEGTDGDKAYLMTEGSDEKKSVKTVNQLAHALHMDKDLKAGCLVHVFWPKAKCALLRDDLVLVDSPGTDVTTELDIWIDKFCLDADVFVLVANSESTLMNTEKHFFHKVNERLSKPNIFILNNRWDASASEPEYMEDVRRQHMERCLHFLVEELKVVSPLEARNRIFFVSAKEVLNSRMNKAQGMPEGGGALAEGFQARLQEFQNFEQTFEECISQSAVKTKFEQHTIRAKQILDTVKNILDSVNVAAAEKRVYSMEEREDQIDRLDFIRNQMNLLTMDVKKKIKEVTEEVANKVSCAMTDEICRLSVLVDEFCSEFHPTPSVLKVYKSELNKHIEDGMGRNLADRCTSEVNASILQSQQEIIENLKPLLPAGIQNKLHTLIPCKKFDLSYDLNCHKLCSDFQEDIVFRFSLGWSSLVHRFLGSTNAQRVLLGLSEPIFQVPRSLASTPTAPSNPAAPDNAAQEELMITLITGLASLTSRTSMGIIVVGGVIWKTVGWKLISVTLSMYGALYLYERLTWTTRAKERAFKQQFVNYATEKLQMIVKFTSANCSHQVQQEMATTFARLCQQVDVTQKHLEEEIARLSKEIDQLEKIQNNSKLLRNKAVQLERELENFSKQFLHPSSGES
# T2: TRAK2 (rat brain) (rat (endogenous in brain)) (UniProt Q8R2H7)
# T2 sequence: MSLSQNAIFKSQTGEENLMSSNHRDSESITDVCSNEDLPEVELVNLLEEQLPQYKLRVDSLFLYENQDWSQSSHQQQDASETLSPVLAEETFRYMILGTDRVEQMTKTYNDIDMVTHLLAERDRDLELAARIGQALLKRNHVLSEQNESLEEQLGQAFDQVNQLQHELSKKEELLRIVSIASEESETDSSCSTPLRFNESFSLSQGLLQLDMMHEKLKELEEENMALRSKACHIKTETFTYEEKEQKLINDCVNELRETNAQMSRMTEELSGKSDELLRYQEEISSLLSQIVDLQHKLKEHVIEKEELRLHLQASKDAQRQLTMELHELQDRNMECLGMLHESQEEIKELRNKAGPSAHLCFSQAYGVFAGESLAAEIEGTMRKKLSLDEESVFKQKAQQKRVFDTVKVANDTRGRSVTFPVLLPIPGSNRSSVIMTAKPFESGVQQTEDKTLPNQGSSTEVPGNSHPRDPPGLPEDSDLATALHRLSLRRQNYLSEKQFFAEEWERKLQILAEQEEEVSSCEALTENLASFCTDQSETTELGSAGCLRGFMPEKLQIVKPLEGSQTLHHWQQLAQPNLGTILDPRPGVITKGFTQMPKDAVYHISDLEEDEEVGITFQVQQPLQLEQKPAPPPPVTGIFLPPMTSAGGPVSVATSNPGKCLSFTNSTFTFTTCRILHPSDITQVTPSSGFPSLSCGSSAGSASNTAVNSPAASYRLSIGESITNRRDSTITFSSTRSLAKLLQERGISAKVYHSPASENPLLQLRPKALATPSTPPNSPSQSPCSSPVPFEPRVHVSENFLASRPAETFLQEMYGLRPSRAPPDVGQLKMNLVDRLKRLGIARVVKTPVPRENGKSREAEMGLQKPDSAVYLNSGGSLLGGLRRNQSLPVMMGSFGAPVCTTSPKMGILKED
# B1: full-length, non-mutant, human DISC1 (transgenic rat brain) (protein, UniProt Q9NRI5 1-854)
# chain: MPGGGPQGAPAAAGGGGVSHRAGSRDCLPPAACFRRRRLARRPGYMRSSTGPGIGFLSPAVGTLFRFPGGVSGEESHHSESRARQCGLDSRGLLVRSPVSKSAAAPTVTSVRGTSAHFGIQLRGGTRLPDRLSWPCGPGSAGWQQEFAAMDSSETLDASWEAACSDGARRVRAAGSLPSAELSSNSCSPGCGPEVPPTPPGSHSAFTSSFSFIRLSLGSAGERGEAEGCPPSREAESHCQSPQEMGAKAASLDGPHEDPRCLSRPFSLLATRVSADLAQAARNSSRPERDMHSLPDMDPGSSSSLDPSLAGCGGDGSSGSGDAHSWDTLLRKWEPVLRDCLLRNRRQMEVISLRLKLQKLQEDAVENDDYDKAETLQQRLEDLEQEKISLHFQLPSRQPALSSFLGHLAAQVQAALRRGATQQASGDDTHTPLRMEPRLLEPTAQDSLHVSITRRDWLLQEKQQLQKEIEALQARMFVLEAKDQQLRREIEEQEQQLQWQGCDLTPLVGQLSLGQLQEVSKALQDTLASAGQIPFHAEPPETIRSLQERIKSLNLSLKEITTKVCMSEKFCSTLRKKVNDIETQLPALLEAKMHAISGNHFWTAKDLTEEIRSLTSEREGLEGLLSKLLVLSSRNVKKLGSVKEDYNRLRREVEHQETAYETSVKENTMKYMETLKNKLCSCKCPLLGKVWEADLEACRLLIQSLQLQEARGSLSVEDERQMDDLEGAAPPIPPRLHSEDKRKTPLKVLEEWKTHLIPSLHCAGGEQKEESYILSAELGEKCEDIGKKLLYLEDQLHTAIHSHDEDLIQSLRRELQMVKETLQAMILQLQPAKEAGEREAAASCMTAGVHEAQA
# Key:
# Test in all cases: co-IP; native co-IP from brain homogenate of transgenic rats expressing human DISC1; lysis buffer with 1.5% Triton X-100, 1% BSA, antibodies overnight, protein A beads
# [1] = biological target: T1, Mitofusin1 (rat brain) (rat (endogenous in brain))
# [2] = biological target: TOM20 (translocase of the outer membrane of 20 kDa), rat brain (rat (endogenous in brain)) (UniProt Q62760)
# [3] = biological target: T2, TRAK2 (rat brain) (rat (endogenous in brain))
binder,measurement,setting,value
B1,binding,[1],binds
same,binding,[2],no binding
same,binding,[3],binds
